This note sets out measurements from the RNAGym collection of RNA variant scans (doi:10.1073/pnas.2313332121).

This sample is rich in variants without activity.

To fix the notation:
B1: TPR 5TU (parent)
chain: GGAUCUUCUCGAUCUAACAAAAAAGACAAAUCUGCCACAAAGCUUGAGAGCAUCUUCGGAUGCAGAGGCGGCAGCCUUCGGUGGCGCGAUAGCGCCAACGUUCUCAACUAUGACACGCAAAACGCGUGCUCCGUUGAAUGGAGUUUAUCAUG

Variants of B1 are the subject of the data set. The data set can be described thus: polymerase ribozyme fitness, log enrichment relative to wild type (log ratio); higher = more active; in vitro selection for triplet polymerase activity. The procedure, abridged:
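Mutant libraries of both subunits of a heterodimeric triplet polymerase ribozyme were PCR-built, transcribed, and selected once in triplicate, with frozen incubation at −7 °C and capture of gel-excised extended constructs on streptavidin beads before RT-PCR. Illumina sequencing of input and output libraries was filtered to genotypes with ≥10 input reads and ≥1 read per output. Fitness is the logarithm of genotype enrichment over wild-type enrichment, using inverse-variance-weighted replicate averages. The logarithm is base 2.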
Regarding U33A U53A C79A G84U A89G A107C A137U, the “polymerase ribozyme fitness (log ratio)” value is ≤ -4.2.
Then U33G A47G U55A C75A, with ≤ -4.2.
Then C32U U135G, with ≤ -4.2; and C32U G46U C103G U104G A107C G140C, with ≤ -4.2.
The value for U33A U56A G80C G94A G100U U135A was ≤ -4.2.
With U33C C76G C93A, the “polymerase ribozyme fitness (log ratio)” value is ≤ -4.2.
Then U33A G88U A120U, with ≤ -4.2.
Then U33A G71A C85G A138C G140U, with ≤ -4.2.
Regarding C32U U33G A41C C51U C118U, the “polymerase ribozyme fitness (log ratio)” value was ≤ -4.2.
The value for C32U U44A G50U U78C G83U A120G was ≤ -4.2; that for U33G G34A C95U was ≤ -4.2; that for G34U C54U C69G G92U C103U C114U was ≤ -4.2.
The value for C32U C43A C85G G86C U90G C103U A110G A121U C132G U135G G136A was ≤ -4.2; that for U33C G42C U53A C85A A113U A119U was ≤ -4.2; that for G34U G48C A91U G126A U134A was ≤ -4.2.
As for U33A G94A G136U G141C, the “polymerase ribozyme fitness (log ratio)” value is ≤ -4.2.
The value for G34A A41G G94A G133U G143U U146C was ≤ -4.2.
Consider G34A U56A G84A G94C A106C G141A, for which the “polymerase ribozyme fitness (log ratio)” value is ≤ -4.2.
Then G34C C85U C96U G128A, with ≤ -4.2.
The value for C32U C87A was ≤ -4.2; that for U33G C51U A97U G136A A142C was ≤ -4.2.
Then U33G U53A C57A U61C G136C, with ≤ -4.2; and G34A A120C, with 0.113; and U33A C75G U78A U101A G152U, with -4.02.
With C32U U55A A91C U102G, the “polymerase ribozyme fitness (log ratio)” value is ≤ -4.2.
As for C35A G59A C85U G126A U130G, the “polymerase ribozyme fitness (log ratio)” value was ≤ -4.2.
The value for C32U C38U C87G C96U A138G was ≤ -4.2.
Then U33G A40U A91U, with ≤ -4.2; and C35A G50C G86U C118A, with ≤ -4.2.
With U33G A41C C43U G50A G152U, the “polymerase ribozyme fitness (log ratio)” value is -4.07.
The value for U33A G70A U77C C99U was ≤ -4.2; that for C35A C87G G94A was ≤ -4.2; that for U33G G86U U101G U111A was ≤ -4.2.
Turning to U33G C35U G59U C75G G128A U139A, the “polymerase ribozyme fitness (log ratio)” value is -4.05.
Then U33G C105U U130C U145C, with ≤ -4.2.
The value for C32U U56G C75U G81C G83U C85U U101G was ≤ -4.2; that for G34A A52U U56A G94A was ≤ -4.2.
Regarding U33A G81U U82G G92U G152A, the “polymerase ribozyme fitness (log ratio)” value is ≤ -4.2.
Then U33G A115U G124C, with ≤ -4.2; and U33G C43A G46U G94U, with ≤ -4.2; and U33C G81U C99A A110G A119C C132U G133C, with ≤ -4.2.
Then C35A C51U G81A G86U C95G U111G, with ≤ -4.2.
With G34A G67U C76G A91G C116G, the “polymerase ribozyme fitness (log ratio)” value was ≤ -4.2.
Regarding G34C A52G G84A U109A C125U, the “polymerase ribozyme fitness (log ratio)” value is ≤ -4.2.
Regarding U33A U45G C69G C76G C85U C93U, the “polymerase ribozyme fitness (log ratio)” value is ≤ -4.2.
The value for C32U G48A G84C G141A was ≤ -4.2; that for U33G C95G U145A was ≤ -4.2.
The value for C32U G48C C63A A64C G81A G100A A106G was ≤ -4.2; that for U33C A39C G48A U82C A113G C114U U145C was ≤ -4.2.
Then C32U C63A A66C C93U C118G U135A, with ≤ -4.2; and U33G G65C U78G A98G C149A, with ≤ -4.2; and U33A G74C U104A G126U G143U, with ≤ -4.2.
For the variant U33G C35A A91U C108G U145G, the “polymerase ribozyme fitness (log ratio)” value was ≤ -4.2.
Then U33G C51U U78G G83U C116A C131G, with ≤ -4.2.
Then G34A A60G G94A A147G A150C, with ≤ -4.2; and U33G G80U C87U A91G A113G C118U, with ≤ -4.2.
Turning to C35A U90G G92A G112A C131G G143A, the “polymerase ribozyme fitness (log ratio)” value is ≤ -4.2.
The value for G34U U55A A91G G94U was ≤ -4.2; that for U33A A52U G86U C87A U109A was ≤ -4.2; that for U33G U45C U78C C116U U146G was ≤ -4.2.
Then U33G G84C C132U, with ≤ -4.2.
The value for G34U C69U G94U was ≤ -4.2; that for C35A U53A C93U A147G was ≤ -4.2; that for G34A A49C U61G G94A U139G was ≤ -4.2.
Consider G34U C51G G70C A89U A115U U134A G140U, for which the “polymerase ribozyme fitness (log ratio)” value is ≤ -4.2.
Then U33G G42C G71U C95A A115U C116G, with ≤ -4.2; and U33A U77G G117A U135C U139C C149U, with ≤ -4.2.
The value for C35A A47C G86U U146G U151A was ≤ -4.2; that for C32U U56A A66G C85G A120G G136U was ≤ -4.2.
The value for U33C G84U G141U was ≤ -4.2; that for U33C C36U C54A C72U G84U C85A U148G was ≤ -4.2.
Turning to C32U G94C A106C, the “polymerase ribozyme fitness (log ratio)” value was ≤ -4.2.
Then C32U C79A C131U U134C U144C, with ≤ -4.2; and G34U G46C A73U C75A C85U A113G, with ≤ -4.2; and C35A G67A G70C G92A C114U C149A A150C G152U, with ≤ -4.2.
C35A A37U A52C C85U U104G C114U: the “polymerase ribozyme fitness (log ratio)” value is ≤ -4.2.
Then C35A C54U U56A G80A G83U C96A C105G C116G, with ≤ -4.2; and U33A A60C G83A C87G A137U, with ≤ -4.2; and U33C U82C C87G A110U, with ≤ -4.2.
Then C35A, with -2.69; and U33G G58C A91G U104C U145G, with ≤ -4.2.
Then G34C C57A C87U G141C, with ≤ -4.2; and U33C G88A C96U U102G C116U A142U, with ≤ -4.2; and C35A C54U U82C C85A C132U, with ≤ -4.2.
